Laboratory results: publication PMC8119438
These are yes or no findings as the source states them, for the method shown. Some results given as binding are weak or reduced against the parent protein; the word gives no strength. Where a sequence is shown, tags or fusion partners need not be part of it.

Assays:
Assay in all cases: two-hybrid; yeast with pGAD-C1 and pGBD-C1 constructs of RILP, RILP-L1 or RILP-L2; growth at 30 °C on SC-AHLW selection medium for one week (Supplementary figure S1)
[1] = biological target: T1, RILP-L2 (yeast two-hybrid fusions) (mouse) (UniProt Q99LE1)
T1 sequence: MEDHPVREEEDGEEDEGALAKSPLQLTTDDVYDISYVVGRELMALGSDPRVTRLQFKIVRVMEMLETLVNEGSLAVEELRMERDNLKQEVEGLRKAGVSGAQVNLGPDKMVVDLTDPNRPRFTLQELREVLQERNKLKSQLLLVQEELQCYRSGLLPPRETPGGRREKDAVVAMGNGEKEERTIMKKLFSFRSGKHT

[2] = biological target: T2, RILP-L1 (yeast two-hybrid fusions) (mouse) (UniProt Q9JJC6)
T2 sequence: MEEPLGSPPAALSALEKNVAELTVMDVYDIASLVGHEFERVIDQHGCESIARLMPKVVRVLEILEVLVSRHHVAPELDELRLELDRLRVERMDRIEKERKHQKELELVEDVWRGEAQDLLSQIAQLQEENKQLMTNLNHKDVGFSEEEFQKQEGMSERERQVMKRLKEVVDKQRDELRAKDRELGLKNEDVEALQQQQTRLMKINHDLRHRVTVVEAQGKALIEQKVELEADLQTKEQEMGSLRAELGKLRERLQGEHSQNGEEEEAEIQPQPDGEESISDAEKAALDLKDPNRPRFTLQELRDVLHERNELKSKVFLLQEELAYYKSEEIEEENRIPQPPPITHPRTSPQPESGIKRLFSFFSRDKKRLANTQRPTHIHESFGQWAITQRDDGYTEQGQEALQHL

[3] = biological target: RILP (yeast two-hybrid fusions) (mouse) (UniProt Q5ND29)

- binding [1]: no binding
- binding [2]: no binding
- binding [3]: binds
B1: RILP (yeast two-hybrid fusions) (protein, UniProt Q5ND29 1-369)
chain: MEPRRAAPRLPSQASSSVGAGSAAELVYHLAGALGTELQGLARRFGPDAAAGLVPLVVRALELLEKAAVGPAPDSLQVSAQQAEVELRRLREENQRLRQELGSGPQEERALLRQLKEVTDRQRDELRAHNRDLQRRSQETEALQEQLQRLLLINSELRHKLAAVQTQLRAAQDRERERQIAQDGSSQLAKEQSLEPDAATSDDPVDTQKQPGNLPEAVQCGFSREELKQILQERNELKANVFLLKEELAYFQRELLTDHRVPGLLLEAMKVAVKKQRRKIKAKMLGTPEEAESSEDEDGSWLLLSNDKEDVPLVPESRIQNFFGLWYRGETEAPEAETSNPASSSLQKGEETPQQPHLQPVNSPPAPNS
